# Results as given in publication PMC4336329 (PLoS ONE, 2015).
# Among all 310,000 compounds or so, about 14,000 (4.5%) showed an effect of 50% or more. Effects have a minus sign here. Some of the results follow.
# Molecular target: human ether-à-go-go-related gene (hERG) potassium channel (human, UniProt Q12809)
# Assay: primary screen, population patch clamp on CHO cells stably expressing hERG
# 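Note: peak tail current of the secondary pulse compared with the same well before compound.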
# Sequence of human ether-à-go-go-related gene (hERG) potassium channel (Q12809 whole entry, looked up): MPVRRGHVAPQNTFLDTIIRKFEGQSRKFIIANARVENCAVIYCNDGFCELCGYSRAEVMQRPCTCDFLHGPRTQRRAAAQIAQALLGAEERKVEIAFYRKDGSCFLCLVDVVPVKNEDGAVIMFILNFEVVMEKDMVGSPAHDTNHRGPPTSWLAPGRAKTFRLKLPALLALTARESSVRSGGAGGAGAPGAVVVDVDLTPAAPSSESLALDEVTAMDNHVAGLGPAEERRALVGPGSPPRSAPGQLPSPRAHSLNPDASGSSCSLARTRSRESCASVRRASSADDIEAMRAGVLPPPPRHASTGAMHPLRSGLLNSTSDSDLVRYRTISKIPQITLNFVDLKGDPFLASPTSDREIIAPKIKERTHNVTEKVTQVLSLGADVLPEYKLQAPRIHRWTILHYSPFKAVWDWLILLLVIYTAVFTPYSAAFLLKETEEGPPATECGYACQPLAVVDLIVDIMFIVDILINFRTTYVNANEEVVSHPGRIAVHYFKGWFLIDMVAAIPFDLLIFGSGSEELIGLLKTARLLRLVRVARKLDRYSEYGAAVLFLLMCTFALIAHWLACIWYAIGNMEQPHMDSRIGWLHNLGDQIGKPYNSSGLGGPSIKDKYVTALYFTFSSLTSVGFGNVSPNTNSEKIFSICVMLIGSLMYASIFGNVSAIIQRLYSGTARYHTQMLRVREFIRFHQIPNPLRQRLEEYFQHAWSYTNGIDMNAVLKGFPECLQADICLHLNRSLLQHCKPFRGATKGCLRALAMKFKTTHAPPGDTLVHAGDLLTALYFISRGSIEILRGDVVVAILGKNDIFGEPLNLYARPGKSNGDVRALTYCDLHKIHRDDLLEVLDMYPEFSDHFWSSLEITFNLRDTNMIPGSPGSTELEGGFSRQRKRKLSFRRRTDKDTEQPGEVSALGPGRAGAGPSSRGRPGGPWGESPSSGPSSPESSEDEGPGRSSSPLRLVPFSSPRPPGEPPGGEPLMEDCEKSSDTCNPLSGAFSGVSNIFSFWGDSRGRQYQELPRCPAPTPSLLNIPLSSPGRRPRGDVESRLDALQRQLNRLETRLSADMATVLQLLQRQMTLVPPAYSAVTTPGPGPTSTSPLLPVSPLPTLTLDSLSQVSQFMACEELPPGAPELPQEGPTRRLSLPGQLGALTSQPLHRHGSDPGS
row,Structure (SMILES),"hERG current change (%, negative = inhibition) at 10uM"
1,Cc1c(C(=O)OCCOc2ccccc2)[nH]c2c1C(=O)CCC2,-18.2%
2,COC(=O)c1ccc(NC(=O)CCN2C(=O)C3CC=CCC3C2=O)cc1 (centres unmarked),-2.37%
3,O=C(/C=C/c1ccco1)Nc1ccc(Cl)c(S(=O)(=O)N2CCOCC2)c1,-7.88%
4,COc1ccccc1C1CCN(Cc2cccc3ccccc23)CC1,-13.9%
5,Cc1ccc(NC(=S)NC(=O)C2CCCC2)cc1C,22.8%
6,O=C1/C(=N\S(=O)(=O)c2cccs2)C([n+]2ccc(CCCc3ccccc3)cc2)=C([O-])c2ccccc21,-70.5%
7,O=C(COC(=O)Cc1c[nH]c2ccccc12)NCCc1ccccc1,-2.11%
8,Cc1nc2sc(-c3ccccc3)cc2c(=O)n1-n1cccc1,1.2%
9,O=C(COc1ccc(Cl)cc1)NCCCn1ccnc1,-31.6%
10,O=C(OCC(=O)c1ccc[nH]1)c1ccc(Br)cc1,0.262%
11,Cn1c(SCCOc2ccccc2Cl)nnc1-c1ccncc1,-19.7%
12,O=S(=O)(Nc1cccc(F)c1)c1cccc2nsnc12,3.21%
13,CC(=O)NCCn1c(SCc2ccccc2F)nc2ccccc2c1=O,-13.5%
14,OC1CCN(c2c3c(nc4cc(-c5ccc(Cl)cc5)nn24)CCC3)CC1,-22.6%
15,COc1cc(Cl)c(C)cc1NC(=O)COC(=O)c1cc[n+]([O-])cc1,-16.4%
16,CC(C)COc1ccc(Cc2c(O)[nH]c(=S)[nH]c2=O)cc1,15%
17,Cc1ccc(SCC(=O)N(C)CC(=O)Nc2cccc(F)c2)c(C)c1,-13.6%
18,CCN(CC)c1ccc(NC(=O)COC(=O)COc2ccccc2[N+](=O)[O-])cc1,3.42%
19,CCOc1cc(C(=O)NCC(=O)N2CCC3(CC2)NCCc2[nH]cnc23)cc(OCC)c1OCC,7.48%
20,O=C(CCNC(=O)c1ccc([N+](=O)[O-])cc1)NC1CCCCCC1,-25.3%
21,COC(=O)C1CCN(C(=O)CSc2nnc(-c3ccncc3)o2)CC1,-21.1%
22,O=C1CSC(c2ccccc2)N1c1nc(-c2ccc(Cl)cc2Cl)cs1 (centres unmarked),-1.95%
23,COc1ccc(C/C(N)=N/OC(=O)Cc2ccccc2)cc1,-7.03%

row,Structure (SMILES),"hERG current change (%, negative = inhibition) at 10uM"
1,O=C(NCc1cccnc1)c1c(F)c(F)c(F)c(F)c1F,-1.74%
2,OCC1OC(n2cnc3c(NC4CCCCC4)ncnc32)C(O)C1O (centres unmarked),9.57%
3,CC(=O)/C(=N/Nc1cccc(Cl)c1)N1CCOCC1.Cl,0.998%
4,COc1ccc(N2CCN(C(=O)NCc3ccc(C)cc3)CC2)cc1,13.4%
5,CCC[C@@H](NS(=O)(=O)c1ccc(C)cc1)C(=O)Oc1ccc2c3c(c(=O)oc2c1)CCC3,3.75%
6,CN(C)c1ccc(CN(Cc2ccco2)C(=O)c2ccco2)cc1,-30.1%
7,COc1cc(C)c(NC(c2ccccc2)c2ccccc2)cc1OC,10.6%
8,O=C(CSc1ccc(Cl)cc1)Nc1ccccc1N1CCN(C(=O)c2ccc(Cl)cc2)CC1,-10.7%
9,Cc1cccc(C)c1NC(=O)CN(C)C(=O)C1CC1C (centres unmarked),-0.74%
10,NC(=O)C1CCN(C2CC(=O)N(Cc3cccs3)C2=O)CC1 (centres unmarked),0.931%
11,NC(=O)c1ccc(F)cc1,17.7%
12,CCOc1ccc(S(=O)(=O)NCc2ccc3c(c2)OCO3)cc1,8.6%
13,CCN(CC)CCNCC1C(=O)O[C@@H]2C[C@@]3(C)CCC[C@H](C)C3=C[C@H]12 (some centres unmarked),-13.4%
14,CCOc1cc(C(=O)CSc2nnc(CNc3ccc(Cl)cc3)o2)ccc1NC(=O)CC,-1.83%
15,C[C@@H]1C[C@H]2[C@@H]3CCC4=CC(=O)C=C[C@]4(C)[C@@]3(F)[C@@H](O)C[C@]2(C)[C@@]1(O)C(=O)CO,10.4%
16,CCOC(=O)c1c(NC(=O)CSc2ncn[nH]2)sc(C(C)=O)c1C,-12.7%
17,Cc1ccc(NC(=O)CCn2nc(C)cc2C)cc1,11.4%
18,O=C1c2ccncc2C(=O)N1c1cccc(Cl)c1,13.4%
19,O=C(Cc1ccc(Br)cc1)Nc1cccc(-c2cn3c(n2)SCC3)c1,4.29%
20,COc1cc(O)c(C(CCN2CCN(c3ccccc3)CC2)c2cc(OC)c(OC)c(OC)c2)c(OC)c1 (centres unmarked),-29.5%
21,Cc1nc2nc(-c3cccnc3)nn2c(C)c1Cl,-11.1%
22,CNC(=O)Nc1ccc2nc(C)sc2c1,14.2%
23,COC(=O)c1ccc(C(=O)OC)c(NC(=O)CN(c2ccccc2)S(=O)(=O)N(C)C)c1,-6.89%

row,Structure (SMILES),"hERG current change (%, negative = inhibition) at 10uM"
1,COc1ccc(NC(=O)Cc2c(O)c3ccccc3[nH]c2=O)cc1,-4.6%
2,CCCCn1c(N)c(N(Cc2ccccc2OC)C(=O)C(C)Oc2ccc(F)cc2)c(=O)[nH]c1=O (centres unmarked),6.13%
3,C=CCC(CC=C)(NC(=O)c1ccccc1C(=O)O)c1ccccc1,-1.12%
4,CCOC(=O)N1CCN(CCC(=O)Nc2ccc(Br)c(C)c2)CC1.Cl,-35.7%
5,CN(C)C(=O)CCC(=O)N(C)CC1CCCN(CCc2ccc(F)cc2)C1 (centres unmarked),-38.1%
6,OCC1(Cc2ccccc2)CCN(Cc2ccc(-c3ccco3)cc2)CC1,-66.6%
7,CCOC(=O)C(CC)Sc1ncnc2nc[nH]c12 (centres unmarked),-12.4%
8,COc1ccc(S(=O)(=O)N(CC(=O)NCc2ccco2)c2ccccc2)cc1OC,-4.97%
9,Cc1nnc(SCC(=O)N2CCN(Cc3ccccc3)CC2)s1,-2.28%
10,NC(=O)N1CCN(C(=O)c2ccco2)CC1,6.37%
11,CN(C)c1nc(C(=O)O)nc(N2CCOCC2)n1,10.7%
12,CC(=O)c1ccc(S(=O)(=O)Nc2cccc(-c3cn4c(n3)SCC4)c2)cc1,10.9%
13,CCCCCC(=O)NC(=S)Nc1ccccc1C(=O)OC,-3.32%
14,CC1CCCN(C(=O)COC(=O)Cc2c[nH]c3ccccc23)C1 (centres unmarked),1.54%
15,CC(C)CCn1c(SCC(N)=O)nc2c1c(=O)n(C)c(=O)n2C,6.57%
16,CCN1CCc2c(sc(NC(=S)NC(=O)c3ccco3)c2C(N)=O)C1,2.95%
17,CCC1=Nc2cc(C(=O)NCC3CCCO3)ccc2Sc2ccc(Cl)cc21 (centres unmarked),-15.5%
18,CCOc1ccc(Oc2ccc(Cl)cc2NC(=O)CCNC(C)=O)cc1,12.7%
19,Cc1cccc(S(=O)(=O)Nc2nc3ccccc3nc2NCc2ccc3c(c2)OCO3)c1,24.6%
20,CN(C)c1cccc2c(S(=O)(=O)Nc3ccccn3)cccc12,6.16%
21,O=C(CSc1nnnn1C1CCCCC1)NCCc1ccccc1,-16.2%
22,CCCOc1ccccc1C(=O)N(Cc1cccc(Br)c1)C1CCS(=O)(=O)C1 (centres unmarked),-35.4%
23,CC(C(=O)NCC1CCCO1)N(C(=O)c1snc(C(N)=O)c1N)c1cccc(F)c1 (centres unmarked),-2.06%

row,Structure (SMILES),"hERG current change (%, negative = inhibition) at 10uM"
1,COc1ccc(CNC(=O)C2CCN(S(=O)(=O)N3CCCCC3)CC2)c(OC)c1,4.43%
2,Cc1ccc(S(=O)(=O)N2C(=O)CCC2C(=O)O/N=C(\N)c2cccc([N+](=O)[O-])c2)cc1 (centres unmarked),-32.7%
3,Cc1ncc(CO)c(CNc2ccc(Oc3ccccc3)cc2)c1O,-13.7%
4,CCOC(=O)c1ccc(NC(=O)CSc2nnc(COc3ccccc3OC)n2CC)cc1,-1.5%
5,CS(=O)(=O)N(CC(N)=O)c1cccc(Br)c1,9.26%
6,COc1ccc(N(CC(=O)NCCSc2ccccn2)S(=O)(=O)c2ccccc2)cc1Cl,-19.6%
7,CCCOc1ccc(CNC(=S)Nc2ccccc2)cc1Cl,16.5%
8,Cc1cccn2c(=O)nc(SCC(=O)N3CC(C)OC(C)C3)nc12 (centres unmarked),1.96%
9,CCn1cc(C(=O)NCc2cccc(C(F)(F)F)c2)c(=O)c2ccc(C)nc21,2.71%
10,CCc1c(C)sc(NC(=O)c2cc(-c3ccco3)on2)c1C#N,16.9%
11,O=C1NC(=S)N(c2ccc(Cl)cc2)C(=O)/C1=C/N1CCN(C(=O)c2ccco2)CC1,7.25%
12,O=C(NNc1ccc(Cl)cc1)c1sccc1Cl,0.717%
13,CCOC(=O)NCc1ccc2[nH]c(C)cc2c1,22.5%
14,COc1ccccc1NC(=O)N1CCCC1C(=O)NCC1CCCO1 (centres unmarked),4.03%
15,CCS(=O)(=O)Nc1ccc(Cc2ccncc2)cc1,-0.00702%
16,Cc1cccc(NC(c2ccc(O)cc2)c2ccc3ccc(C)nc3c2O)n1 (centres unmarked),27.9%
17,O=C(O)c1cccc(-n2cccc2/C=C2\SC(=O)N(Cc3ccccc3F)C2=O)c1,4.94%
18,O=C(CN1CCN(c2ccc(F)cc2)CC1)NCc1ccc(Cl)cc1,-62.7%
19,CCCS(=O)(=O)N1CCC(C(=O)NC2CCCC(C)C2C)CC1 (centres unmarked),7.15%
20,CC(C)Cc1cc(C(=O)Nc2cc(Cl)ccc2Cl)no1,14.9%
